The other results are listed elsewhere or left out. Rule as the data show it: active = 3.2 or more and inactive = the rest. Most of these values are background signal.
target: SHP2 C-SH2 domain E139D; experiment: enrichment score (SH2-bound / input frequency) (ratio); bacterial display of known human phosphotyrosine sites (pTyr-Var adds point mutants) read by sequencing; higher = stronger binding; tyrosines were phosphorylated by kinases first; settings: peptide library: pTyr-Var
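Also: displayed peptides selected on beads carrying the immobilized SH2 domain, with library peptides lacking any tyrosine serving as negative controls.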

Enrichment score, inactive:
VEGISYDFIPT [CBS_Y308_G307S] 0.909
RNDQVYQPLRD [CD3D_Y149] 0.631
HAVEDYQAIVD [CCT7_Y263_T259A] 0.618
GQRDLYSGLNQ [CD3E_Y199] 1.18
GRLPEYNTRIA [CCDC151_Y542] 0.832
GQRDLYSGLNE [CD3E_Y199_Q204E] 0.664
NELTFYCCKKD [CD59_Y87_YF] 0.746
RVEDACILTCN [CCT6A_Y229_Y229C] 0.781
ESDGAYIHRMQ [CCDC137_Y125] 0.563
IPKTWYSAEQF [CD207_Y217] 0.987

target: SHP2 C-SH2 domain wild-type; experiment: as above; settings: peptide library: pTyr-Var

Enrichment score, inactive:
VEGISYDFIPT [CBS_Y308_G307S] 1.19
RNDQVYQPLRD [CD3D_Y149] 0.625
HAVEDYQAIVD [CCT7_Y263_T259A] 0.768
GQRDLYSGLNQ [CD3E_Y199] 0.832
GRLPEYNTRIA [CCDC151_Y542] 0.771
GQRDLYSGLNE [CD3E_Y199_Q204E] 0.554
NELTFYCCKKD [CD59_Y87_YF] 0.895
RVEDACILTCN [CCT6A_Y229_Y229C] 0.896
ESDGAYIHRMQ [CCDC137_Y125] 0.575
IPKTWYSAEQF [CD207_Y217] 0.691

target: SHP2 N-SH2 domain L43F; experiment: as above; settings: peptide library: pTyr-Var

Enrichment score, inactive:
VEGISYDFIPT [CBS_Y308_G307S] 0.943
RNDQVYQPLRD [CD3D_Y149] 0.541
HAVEDYQAIVD [CCT7_Y263_T259A] 0.608
GQRDLYSGLNQ [CD3E_Y199] 0.821
GRLPEYNTRIA [CCDC151_Y542] 0.63
GQRDLYSGLNE [CD3E_Y199_Q204E] 0.642
NELTFYCCKKD [CD59_Y87_YF] 0.68
RVEDACILTCN [CCT6A_Y229_Y229C] 0.904
ESDGAYIHRMQ [CCDC137_Y125] 0.473
IPKTWYSAEQF [CD207_Y217] 0.795

target: SHP2 N-SH2 domain T42A; experiment: as above; settings: peptide library: pTyr-Var

Enrichment score, inactive:
VEGISYDFIPT [CBS_Y308_G307S] 0.815
RNDQVYQPLRD [CD3D_Y149] 0.579
HAVEDYQAIVD [CCT7_Y263_T259A] 0.582
GQRDLYSGLNQ [CD3E_Y199] 0.727
GRLPEYNTRIA [CCDC151_Y542] 0.619
GQRDLYSGLNE [CD3E_Y199_Q204E] 0.555
NELTFYCCKKD [CD59_Y87_YF] 0.641
RVEDACILTCN [CCT6A_Y229_Y229C] 0.877
ESDGAYIHRMQ [CCDC137_Y125] 0.628
IPKTWYSAEQF [CD207_Y217] 0.68

target: SHP2 N-SH2 domain T52S; experiment: as above; settings: peptide library: pTyr-Var

Enrichment score, inactive:
VEGISYDFIPT [CBS_Y308_G307S] 0.892
RNDQVYQPLRD [CD3D_Y149] 0.535
HAVEDYQAIVD [CCT7_Y263_T259A] 0.685
GQRDLYSGLNQ [CD3E_Y199] 0.729
GRLPEYNTRIA [CCDC151_Y542] 0.696
GQRDLYSGLNE [CD3E_Y199_Q204E] 0.682
NELTFYCCKKD [CD59_Y87_YF] 0.737
RVEDACILTCN [CCT6A_Y229_Y229C] 0.892
ESDGAYIHRMQ [CCDC137_Y125] 0.567
IPKTWYSAEQF [CD207_Y217] 0.656

target: SHP2 N-SH2 domain wild-type; experiment: as above; settings: peptide library: pTyr-Var

Enrichment score, inactive:
VEGISYDFIPT [CBS_Y308_G307S] 0.847
RNDQVYQPLRD [CD3D_Y149] 0.634
HAVEDYQAIVD [CCT7_Y263_T259A] 0.87
GQRDLYSGLNQ [CD3E_Y199] 0.772
GRLPEYNTRIA [CCDC151_Y542] 0.763
GQRDLYSGLNE [CD3E_Y199_Q204E] 0.674
NELTFYCCKKD [CD59_Y87_YF] 0.93
RVEDACILTCN [CCT6A_Y229_Y229C] 0.794
ESDGAYIHRMQ [CCDC137_Y125] 0.716
IPKTWYSAEQF [CD207_Y217] 0.801

— the supplement of paper PMC10369915
